Data from article PMC6607443, “Systematic identification of recognition motifs for the hub protein LC8” (Life Science Alliance, 2019).
Results are given in words; binding and its absence hold for the method and conditions named. Some entries that bind do so weakly or less than the wild type.

The chains behind the UniProt entries cited, without tags or fusion partners.
UniProt P63167: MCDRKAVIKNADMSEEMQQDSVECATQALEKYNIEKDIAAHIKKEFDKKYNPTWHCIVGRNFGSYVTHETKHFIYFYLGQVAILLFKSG

Target: dynein light chain LC8 (UniProt P63167)
Assay: ITC; peptide (500 μM) injected into 25 μM LC8 in the cell; 25°C; 50 mM sodium phosphate, 50 mM NaCl, 1 mM sodium azide, 5 mM β-mercaptoethanol, pH 7.5; single-site model; averages of two to three experiments; both purified

Row | Binder | binding
1 | ARAGRSVSTQTGSM [CIZ1 peptide] | binds
2 | SQNHWTRSTQTTRE [MUC4 peptide (…)] | binds
3 | DDNHWTRSTQTTRE [MUC4 peptide with N-terminal aspartates (…)] | binds
4 | GQGAALTTATQTTHLE [GP1BA peptide] | binds weakly
5 | SKTQQTFGSQTECT [TOGARAM1 peptide] | binds weakly
6 | SPSPTGLPTQTPGF [ARAP3 peptide] | binds weakly
7 | DDSGGNATTQTTSD [ROR1 peptide] | binds weakly
8 | PRATAEFSTQTPSP [bassoon (BSN) peptide, modified version with the TQT motif near the C-terminus] | binds
9 | PAPPSYSDKGVQTPSK [ZFPM1 peptide] | binds
10 | YDSMDHLDKQTQTPKT [CCL2 peptide] | binds
11 | YGCTRHQSVQTEDG [MAST1 peptide] | binds
12 | QDFMKHLDKKTQTPKL [CCL7 peptide] | binds
13 | SSSTRSIDTQTPSV [GLCCI1 peptide] | binds
14 | HPETQDSSTQTDTS [SPAG5 peptide] | binds
15 | NQSFTTASTQTPPQ [CAPRIN2 peptide] | binds
16 | AKESCNMETQTSST [OFD1 peptide] | binds
17 | PVLTSATGTQTSPA [MUC3A peptide] | binds
18 | DDHSREKGTQTSGD [SLC9A2 peptide] | binds
19 | EKELRHIGTQISSD [ICE1 peptide] | binds
20 | IVSCVSVSTQTASD [KMT2C peptide] | no binding (tested: 500 μM peptide injected into 25 μM LC8)

Row | Binder | binding
21 | LPRKVDTAAQTNSR [IRS1 peptide] | no binding (tested: 500 μM peptide injected into 25 μM LC8)
22 | KTLTFSGSSQTVTP [QSER1 peptide] | no binding (tested: 500 μM peptide injected into 25 μM LC8)
23 | TEAKDQCSTQTDFN [EPAS1 peptide] | no binding (tested: 500 μM peptide injected into 25 μM LC8)
24 | RSFVLPVESTQDVSSQ [CRYBG1 peptide] | no binding (tested: 500 μM peptide injected into 25 μM LC8)
25 | SFRHPGYSTQTHVN [KLK7 peptide] | no binding (tested: 500 μM peptide injected into 25 μM LC8)
26 | TQDDYFKDKRVHHFRRS [DAZL peptide (272-288)] | no binding (tested: 500 μM peptide injected into 25 μM LC8)
27 | VRTLPRFQTQVDRR [SCRN2 peptide (…)] | no binding (tested: 500 μM peptide injected into 25 μM LC8)
28 | DDTLPRFQTQVDRR [SCRN2 peptide with N-terminal aspartates (…)] | no binding (tested: 500 μM peptide injected into 25 μM LC8)
29 | KITFTKPSTQTTNT [EMSY peptide] | no binding (tested: 500 μM peptide injected into 25 μM LC8)
30 | CLKETLQITQTEVQ [NFYC peptide] | no binding (tested: 500 μM peptide injected into 25 μM LC8)
31 | STQTPSPAPASDMP [bassoon (BSN) peptide exactly matching the ProP-PD hit, TQT motif at the N-terminus] | no binding (tested: 500 μM peptide injected into 25 μM LC8)
32 | TTLPVLTSTATKST [MUC5B-1 peptide] | no binding (tested: 500 μM peptide injected into 25 μM LC8)
33 | AASLIQKMLQTDPTAR [PLK1 peptide] | no binding (tested: 500 μM peptide injected into 25 μM LC8)
34 | DDHSGNAQVTQTKFD [DDX1 peptide] | no binding (tested: 500 μM peptide injected into 25 μM LC8)
35 | ITSYNSQGTQLTVE [KY peptide] | no binding (tested: 500 μM peptide injected into 25 μM LC8)
36 | LQETLTTSSQANLS [PPP2R3A peptide] | no binding (tested: 500 μM peptide injected into 25 μM LC8)
37 | KHSGRQLTLQHHMG [CUL3 peptide] | no binding (tested: 500 μM peptide injected into 25 μM LC8)
38 | NQSFLRTPIQRTPH [SAV1 peptide] | no binding (tested: 500 μM peptide injected into 25 μM LC8)
39 | EGYRGTANTTTAAYLA [MSTL1 peptide] | no binding (tested: 500 μM peptide injected into 25 μM LC8)
40 | PLQATISKSQTNPV [UBN2 peptide] | no binding (tested: 500 μM peptide injected into 25 μM LC8)

Row | Binder | binding
41 | SSRSAFSPLQPNAS [DMRTA2 peptide] | no binding (tested: 500 μM peptide injected into 25 μM LC8)
42 | DERLMCTGSQTFDD [EFL1 peptide] | no binding (tested: 500 μM peptide injected into 25 μM LC8)
43 | TLQQPLELTASQLPAG [OTOG peptide] | no binding (tested: 500 μM peptide injected into 25 μM LC8)
44 | RAAALPEETRSSRR [ZNF469 peptide] | no binding (tested: 500 μM peptide injected into 25 μM LC8)
45 | YGPDGEETETQTCPP [PRSS36 peptide] | no binding (tested: 500 μM peptide injected into 25 μM LC8)
46 | YGQIAPENGTQTPSP [ITGAX peptide] | no binding (tested: 500 μM peptide injected into 25 μM LC8)
47 | KSVAENGDTDTQTSMF [ZZZ3 peptide] | no binding (tested: 500 μM peptide injected into 25 μM LC8)
48 | YKIEIPTQCPSCGSK [DNLJ2 (phage T5) peptide] | no binding (tested: 500 μM peptide injected into 25 μM LC8)
49 | YPQKKSVDRSIQTVVS [DAZL peptide (243-257)] | no binding (tested: 500 μM peptide injected into 25 μM LC8)
50 | YHHRILEAKSIQTSPT [FMN2 peptide] | no binding (tested: 500 μM peptide injected into 25 μM LC8)
51 | MDDIFTQCREGN [ILK peptide] | no binding (tested: 500 μM peptide injected into 25 μM LC8)
52 | TPTPTPTGTQTPTT [MUC2 peptide] | no binding (tested: 500 μM peptide injected into 25 μM LC8)
53 | DFTPAFADFGRQTPGG [EIF4G3 peptide] | no binding (tested: 500 μM peptide injected into 25 μM LC8)
54 | YELMASLDQPTQTVVM [EIF3C peptide] | no binding (tested: 500 μM peptide injected into 25 μM LC8)
55 | NKVFAKLHHNTQTFQA [CCL25 peptide] | no binding (tested: 500 μM peptide injected into 25 μM LC8)
56 | KPFMLDEEGDTQTEET [EIF2S2 peptide] | no binding (tested: 500 μM peptide injected into 25 μM LC8)
57 | SMATPSSSTQTSGT [MUC5B-3 peptide] | no binding (tested: 500 μM peptide injected into 25 μM LC8)
58 | TLVSTASGTQTVFP [SH3RF2 peptide] | no binding (tested: 500 μM peptide injected into 25 μM LC8)
